A compilation of properties of binary mixtures (doi:10.1021/acs.jced.4c00686)
The densities may have been worked out from excess volumes.

Test: xn = mol fraction of the nth substance listed
Conditions: 100 kPa

CC(C)O + COC(C)(C)C
x2 = 0
Conditions | mass density [kg/m3]
293.15 K | 785.1
298.15 K | 774.4

COC(C)(C)C + CC(C)O
mass density [kg/m3]
Conditions | 293.15 K | 298.15 K
x1 = 0.0471 | – | 771.6
x1 = 0.0998 | 779.5 | –
x1 = 0.1478 | 776.9 | 765.7
x1 = 0.1925 | 774.6 | 763.2
x1 = 0.2487 | 771.7 | –
x1 = 0.2948 | 769.4 | –
x1 = 0.3443 | 767 | –
x1 = 0.3993 | – | 752.4
x1 = 0.4434 | 762.4 | 750.2
x1 = 0.4924 | 760.2 | 747.9
x1 = 0.5393 | – | 745.9
x1 = 0.5935 | 756 | 743.5
x1 = 0.6828 | 752.4 | 739.6
x1 = 0.7408 | 750.2 | –
x1 = 0.7915 | 748.3 | 735.3
x1 = 0.8388 | 746.5 | 733.4
x1 = 0.8944 | 744.4 | 731.3
x1 = 1 | 740.6 | 727.4
